Assays:
monkey HER2-His protein [1] = target: T1, monkey HER2-His protein (monkey); experiment: ELISA, coated monkey HER2-His
T1 construct: Bought protein; also called monkey HER2 protein

murine HER2-His protein = target: T2, murine HER2-His protein (murine, UniProt P70424 23-653); experiment: ELISA, coated murine HER2-His
T2 construct: Bought protein; also called murine HER2 protein; not shown: His tag

[2] = target: T3, monkey HER2 on HEK293T-monkey-HER2 cells (monkey); experiment: FACS on HEK293T-monkey-HER2 cells
T3 construct: whole, on cells

monkey HER2-His protein [3] = target: T1, monkey HER2-His protein; experiment: SPR, antibody captured on Protein A chip, monkey HER2-His analyte, 1:1 model
[4] = target: T4, recombinant human HER2-His protein (human, UniProt P04626 partial chain, limits assumed); experiment: SPR, antibody captured on Protein A chip, human HER2-His analyte, 1:1 model
T4 construct: also called human HER2 protein; not shown: His tag

Binder	OD450 nm at 0.0001 nM antibody (monkey HER2-His protein [1]) [OD450 nm]	OD450 nm at 0.001 nM antibody (monkey HER2-His protein [1]) [OD450 nm]	OD450 nm at 0.01 nM antibody (monkey HER2-His protein [1]) [OD450 nm]	OD450 nm at 0.1 nM antibody (monkey HER2-His protein [1]) [OD450 nm]	OD450 nm at 1 nM antibody (monkey HER2-His protein [1]) [OD450 nm]	OD450 nm at 10 nM antibody (monkey HER2-His protein [1]) [OD450 nm]	OD450 nm at 100 nM antibody (monkey HER2-His protein [1]) [OD450 nm]	OD450 nm at 0.0001 nM antibody (murine HER2-His protein) [OD450 nm]	OD450 nm at 0.001 nM antibody (murine HER2-His protein) [OD450 nm]	OD450 nm at 0.01 nM antibody (murine HER2-His protein) [OD450 nm]	OD450 nm at 0.1 nM antibody (murine HER2-His protein) [OD450 nm]	OD450 nm at 1 nM antibody (murine HER2-His protein) [OD450 nm]	EC50 [2] [nM]	Max MFI [2] [MFI]	Kd (monkey HER2-His protein [3]) [nM]	koff (monkey HER2-His protein [3]) [s⁻¹]	kon (monkey HER2-His protein [3]) [M⁻¹ s⁻¹]	Kd [4] [nM]	koff [4] [s⁻¹]	kon [4] [M⁻¹ s⁻¹]	also measured
NB146-12 VHH-hFc (Fc fusion, the junction is not described) QLQLVESGGGLVQPGGSLRLSCAASGFIFSDTAMNWVRQAPGKGLEWVSSINWSGTHTSYADSVKGRFKISRDNAKKALYLQMNSLQPEDTAVYACARGWVDSTRTVVAPLTKGQGTQVTVSS[human IgG1 Fc with changes not written out]	0.05	0.06	0.12	0.6	2.16	2.49	3.23	0.05	0.05	0.05	0.05	0.05	1.4	21600	53.5	0.031	580000	–	–	–	OD450 nm at 10 nM antibody (murine HER2-His protein): 0.05 OD450 nm; OD450 nm at 100 nM antibody (murine HER2-His protein): 0.05 OD450 nm
NB146-27 VHH-hFc (Fc fusion, the junction is not described) EVQLVESGGGLAQPGGSLRLSCAASGFRFTSYWMHWVRQAPGKGLEWVSAINTGGGSTYYADSVKGRFTISRDNAKNTLYLQMNSLKPEDTALYYCARDLSGSDYVVGITSWGQGTQVTVSS[human IgG1 Fc with changes not written out]	0.05	0.06	0.11	0.65	2.16	2.46	2.99	–	–	–	–	–	2.81	19300	–	–	–	423	0.00878	20800	–
NB146-28 VHH-hFc (Fc fusion, the junction is not described) EVQLVESGGTRVQPGGSLKLSCATSGIMFSYNTMAWYRQAPGKQRELVATITRDGSTNYADSMKGRFTISRDNAKNTLYLQMNGLKPEDTAVYYCNLGTTDWRRYNYWGQGTQVTVSS[human IgG1 Fc with changes not written out]	0.05	0.06	0.12	0.71	2.18	2.41	2.93	0.05	0.05	0.05	0.05	0.05	1.15	19800	38.8	0.0115	295000	11.3	0.0022	194000	OD450 nm at 10 nM antibody (murine HER2-His protein): 0.05 OD450 nm; OD450 nm at 100 nM antibody (murine HER2-His protein): 0.05 OD450 nm
NB146-54 VHH-hFc (Fc fusion, the junction is not described) QLQLVESGGGLVQAGGSLRLSCVASGTFFSTKTMAWYRQAPGNQREWIATISPDGTTRHADSMKGRSTISRDNAKKVVYLQLDSLKPEDTAAYYCRDISRDLWGQGTQVTVSS[human IgG1 Fc with changes not written out]	0.05	0.05	0.08	0.36	1.19	1.69	2.01	0.05	0.05	0.05	0.05	0.05	1.71	23000	8.53	0.000568	66500	6.22	0.000301	48300	OD450 nm at 10 nM antibody (murine HER2-His protein): 0.05 OD450 nm; OD450 nm at 100 nM antibody (murine HER2-His protein): 0.05 OD450 nm
NB146-62 VHH-hFc (Fc fusion, the junction is not described) EVQVVESGGELVQPGGSLRLSCAASGFSISTYTMTWVRQGPGKGLEWVSTISPLRWGQSTTSYADSVKGRFTISRDNAKNTLYLQMNSLNPDDTGVYYCSRPDGKRGQGTQVTVSS[human IgG1 Fc with changes not written out]	0.05	0.06	0.09	0.4	1.76	2.5	2.67	0.05	0.05	0.05	0.05	0.05	4.62	18800	–	–	–	–	–	–	OD450 nm at 10 nM antibody (murine HER2-His protein): 0.05 OD450 nm; OD450 nm at 100 nM antibody (murine HER2-His protein): 0.05 OD450 nm
NB146-171 VHH-hFc (Fc fusion, the junction is not described) EVQLVESGGGLVQPGGSLRLSCAASGFTFSSYPMAWVRQAPGKGEEWVSWISNSGGRTTYADSVKGRFTISRDNAKRTVYLQMNKLQPEDTAVYSCTRASGNGERGRGTQVTVSS[human IgG1 Fc with changes not written out]	0.07	0.08	0.2	1.04	3	3.2	3.32	0.05	0.05	0.05	0.05	0.05	1.05	20800	190	0.0121	63600	–	–	–	OD450 nm at 10 nM antibody (murine HER2-His protein): 0.05 OD450 nm; OD450 nm at 100 nM antibody (murine HER2-His protein): 0.06 OD450 nm
NB147-110 VHH-hFc (Fc fusion, the junction is not described) EVQVVESGGGLVQPGGSLRLSCTASGHTLDYYAIGWFRQAPGKEREGVSCITSTGTITNYADSVKGRFTISRDNAKNTVYLQMNSLKPEDTAVYYCAVLRGSYCRSNTFDAWGQGTLVTVSS[human IgG1 Fc with changes not written out]	0.06	0.06	0.12	0.79	2.72	3.02	3.06	–	–	–	–	–	1.87	21500	54.2	0.00417	76900	78.5	0.00438	55900	–
NB147-137 VHH-hFc (Fc fusion, the junction is not described) EVQVVESGGGLVQPGGSLRLSCAASGFTLDYHAIGWFRQAPGKEREGVSCISSSGGRTNYADSVKGRFTISRDNAKNTVYLQMNSLKPEDTAVYYCAAEIFDSAWYCPLSRYDMDYWGKGTLVTVSS[human IgG1 Fc with changes not written out]	0.05	0.06	0.16	0.98	2.65	2.85	3.18	–	–	–	–	–	3.39	17600	–	–	–	267	0.0144	54100	–
NB147-161 VHH-hFc (Fc fusion, the junction is not described) QLQLVESGGGWVQAGGSLRLSCAASGFTLDYYAIGWFRQAPGKEREGVSCISSSGGRSNYADSVKGRFTISRDNAKNTVYLQMNSLKIEDTGVYYCAAVILDDSWQCGYYYNMDYWGKGTLVTVSS[human IgG1 Fc with changes not written out]	0.05	0.05	0.08	0.51	2.23	2.68	2.87	–	–	–	–	–	4.19	14700	–	–	–	49.6	0.00465	93700	–
NB147-39 VHH-hFc (Fc fusion, the junction is not described) QLQLVESGGDLVQPGGSLRLSCAGSGFTLDAYAIGWFRQAPGKEREGVSCISSSGGTTSYADSVKGRFTISRDYAKNTVYLQMNAVKPEDTAVYYCAIERTCERIGASQFRGQGTQVTVSV[human IgG1 Fc with changes not written out]	0.05	0.06	0.16	1.01	2.66	2.84	2.82	0.05	0.05	0.05	0.05	0.05	1.09	20900	38.6	0.00379	98100	–	–	–	OD450 nm at 10 nM antibody (murine HER2-His protein): 0.05 OD450 nm; OD450 nm at 100 nM antibody (murine HER2-His protein): 0.08 OD450 nm
Tab094 (FRP5 ScFv-human IgG1 Fc (hFc)) (Fc fusion, Control antibody; also called Tab94; FRP5 scFv-hFc) scFv: QVQLQQSGPELKKPGETVKISCKASGYPFTNYGMNWVKQAPGQGLKWMGWINTSTGESTFADDFKGRFDFSLETSANTAYLQINNLKSEDMATYFCARWEVYHGYVPYWGQGTTVTVSSGGGGSGGGGSGGGGSDIQLTQSHKFLSTSVGDRVSITCKASQDVYNAVAWYQQKPGQSPKLLIYSASSRYTGVPSRFTGSGSGPDFTFTISSVQAEDLAVYFCQQHFRTPFTFGSGTKLEIK[human IgG1 Fc with changes not written out]	0.07	0.07	0.12	0.77	3.02	3.29	3.29	–	–	–	–	–	4.61	24100	0.849	8.23e-05	96900	0.459	4.57e-05	99600	–

Source: patent US20240076403A1 (SIMCERE ZAIMING PHARMACEUTICAL, published 2024)
